At least one structure is not confirmed: it was looked up by name or label, or the drawing left a doubt. *1 amine or outer side, *2 acyl side, *3 side chain or, on linkers, in order; H or OH if unused. Where a SMILES comes first, the peptide text is derived from it. Bridges are numbered along the chain shown (N, C = ends). Roman numbers before positions name the chains, in order. Side-chain parts run from the residue outwards. [ ]: non-standard residue; d: D form. The star is where a group is joined. C18 diacid = O=C(O)CCCCCCCCCCCCCCCCC(=O)*; γGlu = O=C(O)[C@H](CCC(=O)[*:2])N[*:1]; Desaminohistidyl = O=C(CCc1c[nH]cn1)*; AEEA = NCCOCCOCC(=O)O; Aib = CC(C)(N)C(=O)O
Assay: Assay (III): ThT fibrillation assay for physical stability
Assay type: physicochemical
Conditions: pH 7.5, 10 mM HEPES buffer, 37° C., shaking 960 rpm

ThT assay pH 7.5: Lag time, 45.0 h:
CC[C@H](C)[C@H](NC(=O)[C@H](Cc1ccccc1)NC(=O)[C@H](CCC(=O)O)NC(=O)[C@H](CCCNC(=N)N)NC(=O)[C@H](C)NC(=O)[C@H](C)NC(=O)[C@H](CCC(N)=O)NC(=O)[C@H](CCC(=O)O)NC(=O)[C@H](CCC(=O)O)NC(=O)[C@H](CC(C)C)NC(=O)[C@H](Cc1ccc(O)cc1)NC(=O)[C@H](CCCCN)NC(=O)[C@H](CO)NC(=O)[C@@H](NC(=O)[C@H](CC(=O)O)NC(=O)[C@H](CO)NC(=O)[C@@H](NC(=O)[C@H](Cc1ccccc1)NC(=O)[C@@H](NC(=O)CNC(=O)[C@H](Cc1c[nH]cn1)NC(=O)C(C)(C)NC(=O)CCc1c[nH]cn1)[C@@H](C)O)[C@@H](C)O)C(C)C)C(=O)N[C@@H](C)C(=O)N[C@@H](Cc1c[nH]c2ccccc12)C(=O)N[C@@H](CC(C)C)C(=O)N[C@@H](CC(C)C)C(=O)N[C@@H](CCCCNC(=O)CNC(=O)[C@H](CO)NC(=O)[C@H](CCC(=O)O)NC(=O)CNC(=O)[C@H](CO)NC(=O)CC[C@H](NC(=O)CC[C@H](NC(=O)CCCCCCCCCCCCCCCCC(=O)O)C(=O)O)C(=O)O)C(=O)N[C@H](C(=O)O)[C@@H](C)O [Example 25, N^ε34-[2-[[(2S)-2-[[(2S)-4-carboxy-2-[[2-[[(2S)-2-[[(4S)-4-carboxy-4-[[(4S)-4-carboxy-4-(17-carboxyheptadecanoylamino)butanoyl]amino]butanoyl]amino]-3-hydroxypropanoyl]amino]acetyl]amino]butanoyl]amino]-3-hydroxypropanoyl]amino]acetyl]-[Imp7,Aib8,His9,Lys18,Glu22,Arg26,Leu33,Thr35]-GLP-1-(7-35)-peptide] (I: Desaminohistidyl-[Aib]HGTFTSDVSKYLEEQAAREFIAWLLKT-OH / II: {C18 diacid-γGlu-γGlu}-SGESG; amide I:27-II:C)
CC[C@H](C)[C@H](NC(=O)[C@H](Cc1ccccc1)NC(=O)[C@H](CCC(=O)O)NC(=O)[C@H](CCCNC(=N)N)NC(=O)[C@H](C)NC(=O)[C@H](C)NC(=O)[C@H](CCC(N)=O)NC(=O)[C@H](CCC(=O)O)NC(=O)[C@H](CCC(=O)O)NC(=O)[C@H](CC(C)C)NC(=O)[C@H](Cc1ccc(O)cc1)NC(=O)[C@H](CCCNC(=N)N)NC(=O)[C@H](CO)NC(=O)[C@@H](NC(=O)[C@H](CC(=O)O)NC(=O)[C@H](CO)NC(=O)[C@@H](NC(=O)[C@H](Cc1ccccc1)NC(=O)[C@@H](NC(=O)CNC(=O)[C@H](Cc1c[nH]cn1)NC(=O)CNC(=O)CCc1c[nH]cn1)[C@@H](C)O)[C@@H](C)O)C(C)C)C(=O)N[C@@H](C)C(=O)N[C@@H](Cc1c[nH]c2ccccc12)C(=O)N[C@@H](CC(C)C)C(=O)N[C@@H](CC(C)C)C(=O)N[C@@H](CCCCNC(=O)CNC(=O)[C@H](CO)NC(=O)[C@H](CCC(=O)O)NC(=O)CNC(=O)[C@H](CO)NC(=O)CC[C@H](NC(=O)CC[C@H](NC(=O)CCCCCCCCCCCCCCCCC(=O)O)C(=O)O)C(=O)O)C(=O)N[C@H](C(N)=O)[C@@H](C)O [Example 37, N^ε34-[2-[[(2S)-2-[[(2S)-4-carboxy-2-[[2-[[(2S)-2-[[(4S)-4-carboxy-4-[[(4S)-4-carboxy-4-(17-carboxyheptadecanoylamino)butanoyl]amino]butanoyl]amino]-3-hydroxypropanoyl]amino]acetyl]amino]butanoyl]amino]-3-hydroxypropanoyl]amino]acetyl]-[Imp7,Gly8,His9,Arg18,Glu22,Arg26,Leu33,Thr35]-GLP-1-(7-35)-peptide amide] (I: Desaminohistidyl-GHGTFTSDVSRYLEEQAAREFIAWLLKT-NH2 / II: {C18 diacid-γGlu-γGlu}-SGESG; amide I:27-II:C)
CC[C@H](C)[C@H](NC(=O)[C@H](Cc1ccccc1)NC(=O)[C@H](CCC(=O)O)NC(=O)[C@H](CCCNC(=N)N)NC(=O)[C@H](C)NC(=O)[C@H](C)NC(=O)[C@H](CCC(N)=O)NC(=O)[C@H](CCC(=O)O)NC(=O)[C@H](CCC(=O)O)NC(=O)[C@H](CC(C)C)NC(=O)[C@H](Cc1ccc(O)cc1)NC(=O)[C@H](CCCCN)NC(=O)[C@H](CO)NC(=O)[C@@H](NC(=O)[C@H](CC(=O)O)NC(=O)[C@H](CO)NC(=O)[C@@H](NC(=O)[C@H](Cc1ccccc1)NC(=O)[C@@H](NC(=O)CNC(=O)[C@H](Cc1c[nH]cn1)NC(=O)C(C)(C)NC(=O)CCc1c[nH]cn1)[C@@H](C)O)[C@@H](C)O)C(C)C)C(=O)N[C@@H](C)C(=O)N[C@@H](Cc1c[nH]c2ccccc12)C(=O)N[C@@H](CC(C)C)C(=O)N[C@@H](CC(C)C)C(=O)N[C@@H](CCCCNC(=O)COCCOCCNC(=O)COCCOCCNC(=O)CC[C@H](NC(=O)CC[C@H](NC(=O)CC[C@H](NC(=O)CCCCCCCCCCCCCCCCC(=O)O)C(=O)O)C(=O)O)C(=O)O)C(=O)N[C@H](C(=O)O)[C@@H](C)O [Example 29, N^ε34-[2-[2-[2-[[2-[2-[2-[[(4S)-4-carboxy-4-[[(4S)-4-carboxy-4-[[(4S)-4-carboxy-4-(17-carboxyheptadecanoylamino)butanoyl]amino]butanoyl]amino]butanoyl]amino]ethoxy]ethoxy]acetyl]amino]ethoxy]ethoxy]acetyl]-[Imp7,Aib8,His9,Lys18,Glu22,Arg26,Leu33,Thr35]-GLP-1-(7-35)-peptide] (Desaminohistidyl-[Aib]HGTFTSDVSKYLEEQAAREFIAWLLK([AEEA-AEEA-γGlu-γGlu-γGlu-C18 diacid])T-OH)
CC[C@H](C)[C@H](NC(=O)[C@H](Cc1ccccc1)NC(=O)[C@H](CCC(=O)O)NC(=O)[C@H](CCCNC(=N)N)NC(=O)[C@H](C)NC(=O)[C@H](C)NC(=O)[C@H](CCCCNC(=O)COCCOCCNC(=O)COCCOCCNC(=O)CC[C@H](NC(=O)CCCCCCCCCCCCCCCCC(=O)O)C(=O)O)NC(=O)CNC(=O)[C@H](CCC(=O)O)NC(=O)[C@H](CC(C)C)NC(=O)[C@H](Cc1ccc(O)cc1)NC(=O)[C@H](CCCCN)NC(=O)[C@H](CO)NC(=O)[C@@H](NC(=O)[C@H](CC(=O)O)NC(=O)[C@H](CO)NC(=O)[C@@H](NC(=O)[C@H](Cc1ccccc1)NC(=O)[C@@H](NC(=O)CNC(=O)[C@H](Cc1c[nH]cn1)NC(=O)C(C)(C)NC(=O)CCc1c[nH]cn1)[C@@H](C)O)[C@@H](C)O)C(C)C)C(=O)N[C@@H](C)C(=O)N[C@@H](Cc1c[nH]c2ccccc12)C(=O)N[C@@H](CC(C)C)C(=O)N[C@@H](CC(C)C)C(=O)N[C@@H](CCCCN)C(=O)N[C@H](C(N)=O)[C@@H](C)O [Example 15, N^ε23-[2-[2-[2-[[2-[2-[2-[[(4S)-4-carboxy-4-(17-carboxyheptadecanoylamino)butanoyl]amino]ethoxy]ethoxy]acetyl]amino]ethoxy]ethoxy]acetyl]-[Imp7,Aib8,His9,Lys18,Lys23,Arg26,Leu33,Thr35]-GLP-1-(7-35)-peptide amide] (Desaminohistidyl-[Aib]HGTFTSDVSKYLEGK([AEEA-AEEA-γGlu-C18 diacid])AAREFIAWLLKT-NH2)

Reference: patent US9988430B2, “Stable GLP-1 based GLP-1/glucagon receptor co-agonists” (Novo Nordisk A/S, priority 2014, dated 2018)
